Measured values: publication PMC10277598
Results are given in words; binding and its absence hold for the method and conditions named. Some results given as binding are weak or reduced against the parent protein; the word gives no strength.

T1: T25-ArcA hybrid protein (Escherichia coli) (UniProt P0A9Q1)
T1 sequence: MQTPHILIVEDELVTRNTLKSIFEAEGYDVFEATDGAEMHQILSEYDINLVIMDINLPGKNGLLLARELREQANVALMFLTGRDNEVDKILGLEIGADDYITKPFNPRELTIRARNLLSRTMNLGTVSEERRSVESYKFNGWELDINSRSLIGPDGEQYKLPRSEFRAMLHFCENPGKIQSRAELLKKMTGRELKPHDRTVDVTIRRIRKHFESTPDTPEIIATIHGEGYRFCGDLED

T2: T25-BarA hybrid protein (Escherichia coli) (UniProt P0AEC5)
T2 sequence: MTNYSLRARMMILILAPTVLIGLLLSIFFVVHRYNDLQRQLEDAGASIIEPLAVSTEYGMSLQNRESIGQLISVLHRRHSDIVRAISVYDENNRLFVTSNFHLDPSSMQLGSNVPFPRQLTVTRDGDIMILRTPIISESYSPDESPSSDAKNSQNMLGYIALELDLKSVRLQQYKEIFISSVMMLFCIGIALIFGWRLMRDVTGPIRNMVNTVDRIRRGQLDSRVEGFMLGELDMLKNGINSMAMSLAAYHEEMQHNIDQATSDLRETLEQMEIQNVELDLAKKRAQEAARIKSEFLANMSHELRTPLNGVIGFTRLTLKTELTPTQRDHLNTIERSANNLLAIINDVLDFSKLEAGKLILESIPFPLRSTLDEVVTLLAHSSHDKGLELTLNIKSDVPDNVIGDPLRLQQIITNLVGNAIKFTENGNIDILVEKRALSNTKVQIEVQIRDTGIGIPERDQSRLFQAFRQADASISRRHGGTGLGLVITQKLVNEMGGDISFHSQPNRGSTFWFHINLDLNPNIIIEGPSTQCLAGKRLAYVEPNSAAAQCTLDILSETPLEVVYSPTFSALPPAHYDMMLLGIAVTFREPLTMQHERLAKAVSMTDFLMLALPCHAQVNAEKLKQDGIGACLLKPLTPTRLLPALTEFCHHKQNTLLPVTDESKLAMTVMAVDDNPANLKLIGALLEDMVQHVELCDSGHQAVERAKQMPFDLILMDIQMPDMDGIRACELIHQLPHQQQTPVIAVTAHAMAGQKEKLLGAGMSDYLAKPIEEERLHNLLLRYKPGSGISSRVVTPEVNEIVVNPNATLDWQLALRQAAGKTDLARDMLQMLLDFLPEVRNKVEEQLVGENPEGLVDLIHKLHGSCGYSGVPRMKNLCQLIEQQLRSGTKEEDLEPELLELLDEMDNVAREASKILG

B1: T18-HflK hybrid protein (protein, UniProt P0ABC7 1-419)
chain: MAWNQPGNNGQDRDPWGSSKPGGNSEGNGNKGGRDQGPPDLDDIFRKLSKKLGGLGGGKGTGSGGGSSSQGPRPQLGGRVVTIAAAAIVIIWAASGFYTIKEAERGVVTRFGKFSHLVEPGLNWKPTFIDEVKPVNVEAVRELAASGVMLTSDENVVRVEMNVQYRVTNPEKYLYSVTSPDDSLRQATDSALRGVIGKYTMDRILTEGRTVIRSDTQRELEETIRPYDMGITLLDVNFQAARPPEEVKAAFDDAIAARENEQQYIREAEAYTNEVQPRANGQAQRILEEARAYKAQTILEAQGEVARFAKLLPEYKAAPEITRERLYIETMEKVLGNTRKVLVNDKGGNLMVLPLDQMLKGGNAPAAKSDNGASNLLRLPPASSSTTSGASNTSSTSQGDIMDQRRANAQRNDYQRQGE
B2: T18-HflC hybrid protein (protein, UniProt P0ABC3 1-334)
chain: MRKSVIAIIIIVLVVLYMSVFVVKEGERGITLRFGKVLRDDDNKPLVYEPGLHFKIPFIETVKMLDARIQTMDNQADRFVTKEKKDLIVDSYIKWRISDFSRYYLATGGGDISQAEVLLKRKFSDRLRSEIGRLDVKDIVTDSRGRLTLEVRDALNSGSAGTEDEVTTPAADNAIAEAAERVTAETKGKVPVINPNSMAALGIEVVDVRIKQINLPTEVSEAIYNRMRAEREAVARRHRSQGQEEAEKLRATADYEVTRTLAEAERQGRIMRGEGDAEAAKLFADAFSKDPDFYAFIRSLRAYENSFSGNQDVMVMSPDSDFFRYMKTPTSATR
B3: T18-ArcA hybrid protein (protein, UniProt P0A9Q1 1-238)
chain: T1 sequence

Experiments:
[1] = molecular target: T1, T25-ArcA hybrid protein (Escherichia coli); assay: two-hybrid; bacterial adenylate cyclase two-hybrid (T25 and T18 fusions) in E. coli BTH101 (cya-), 30 °C, 0.5 mM IPTG; blue colonies on X-gal agar plates and β-galactosidase activity of liquid cultures at A600 0.6
[2] = molecular target: T2, T25-BarA hybrid protein (Escherichia coli); assay: as above

| Binder | binding [1] | binding [2] |
| --- | --- | --- |
| B1 | no binding | binds |
| B2 | no binding | binds |
| B3 |  | no binding |
